Results from publication PMC10902388.

Target: full-length human E6AP (C-terminal TEV-6xHis-Avi) (human) (UniProt Q05086)
Assay: SPR

recombinant MBP-18E6 (a stretch of the chain, chain not printed)
koff (natural protein, chains chain, biotin on the Avi tag (BirA biotin-protein ligase) in the SPR experiments, remark: other sources report otherwise): 0.00047 s⁻¹

recombinant MBP-18E6 (a stretch of the chain, chain not printed) (natural protein; biotin on the Avi tag (BirA biotin-protein ligase) in the SPR experiments; other documents disagree on this pair)
Kd: 0.98 nM
